Where two headings read alike, the source gives them in different places.
Columns and labels:
[1] = test system: cucumber anthracnose fungi (Colletotrichum orbiculare); assay: Test Example H: cucumber anthracnose, spray treatment of cucumber plants; settings: for Test H control value class (cucumber anthracnose): 2.5 ml/pot, cucumber Sagami Hanjiro, 6 to 10 days from inoculation; for Test H control value: cucumber anthracnose, 6 to 10 days after inoculation
[2] = test system: rice blast fungi (Magnaporthe grisea); assay type: in vivo; settings: for Test A control value class (rice blast): control value=100{1-(n/3)}; for Test A control value: rice blast
[3] = test system: tomato late blight fungi (Phytophthora infestans); assay type: in vivo; settings: tomato late blight
[4] = spray treatment of tomato plants

Structure (SMILES)	Test H control value class (cucumber anthracnose) ([1]; 250 ppm spray)	Test A control value class (rice blast) ([2]; spray treatment of rice plants)	also measured
COc1cc(F)c(-c2c(Cl)c(=O)c(Cl)cn2C(C)c2ccccc2)c(F)c1 (centres unmarked) [Compound 83]	H (H shows the control value of more than 50%)	H (H shows the control value of more than 50%)	–
COc1cc(F)c(-c2c(Cl)c(=O)c(Cl)cn2-c2ccccc2C)c(F)c1 [Compound 64]	H (H shows the control value of more than 50%)	H (H shows the control value of more than 50%)	–
COCn1cc(C)c(=O)c(C)c1-c1c(F)cc(F)cc1F [Compound 260]	–	–	Test H control value ([1]; 250 ppm spray (2.5 ml/pot)): L (L shows the control value of 50% or less); Test F control value [3, 4]: L (L shows the control value of 50% or less); Test A control value ([2]; spray treatment of rice plants): L (L shows the control value of 50% or less)
O=c1c(Br)cn(-c2ccccc2Cl)c(-c2ccccc2)c1Cl [Compound 388]	–	–	Test H control value ([1]; 250 ppm spray): H (H shows the control value of more than 50%); Test F control value ([3]; spray treatment): L (L shows the control value of 50% or less); Test A control value ([2]; spray treatment): H (H shows the control value of more than 50%)
Cc1ccccc1-n1cc(C)c(=O)c(C)c1-c1ccc(F)cc1 [Compound 226]	–	–	Test H control value ([1]; 250 ppm spray (2.5 ml/pot)): H (H shows the control value of more than 50%); Test F control value [3, 4]: L (L shows the control value of 50% or less); Test A control value ([2]; spray treatment of rice plants): H (H shows the control value of more than 50%)
Cc1ccc(Cl)cc1-n1cc(C)c(=O)c(C)c1-c1c(F)cc(F)cc1F [Compound 463]	–	–	Test H control value ([1]; 250 ppm spray): H (H shows the control value of more than 50%); Test F control value ([3]; spray treatment): L (L shows the control value of 50% or less); Test A control value ([2]; spray treatment): H (H shows the control value of more than 50%)
O=c1c(Br)cn(-c2ccccc2)c(-c2c(F)cccc2F)c1Br [Compound 363]	–	–	Test H control value ([1]; 250 ppm spray (2.5 ml/pot)): L (L shows the control value of 50% or less); Test F control value [3, 4]: L (L shows the control value of 50% or less); Test A control value ([2]; spray treatment of rice plants): L (L shows the control value of 50% or less)
Cc1cccc(Cl)c1-n1cc(Br)c(=O)c(Br)c1-c1ccc(F)cc1 [Compound 380]	–	–	Test H control value ([1]; 250 ppm spray): L (L shows the control value of 50% or less); Test F control value ([3]; spray treatment): L (L shows the control value of 50% or less); Test A control value ([2]; spray treatment): H (H shows the control value of more than 50%)
CCc1c(-c2ccccc2)n(-c2cccc(Cl)c2C)cc(C)c1=O [Compound 545]	–	–	Test H control value ([1]; 250 ppm spray): H (H shows the control value of more than 50%); Test F control value ([3]; spray treatment): L (L shows the control value of 50% or less); Test A control value ([2]; spray treatment): L (L shows the control value of 50% or less)
Cc1ccccc1-n1cc(Br)c(=O)c(Cl)c1-c1c(F)cc(F)cc1F [Compound 66]	H (H shows the control value of more than 50%)	H (H shows the control value of more than 50%)	–
COc1cc(F)c(-c2c(Br)c(=O)c(Cl)cn2Cc2ccccc2Cl)c(F)c1 [Compound 88]	H (H shows the control value of more than 50%)	H (H shows the control value of more than 50%)	–
COc1cc(F)c(-c2c(Br)c(=O)c(Cl)cn2Cc2ccccc2)c(F)c1 [Compound 59]	H (H shows the control value of more than 50%)	H (H shows the control value of more than 50%)	–
Cc1ccccc1-n1cc(Br)c(=O)c(Br)c1-c1c(F)cc(F)cc1F [Compound 67]	H (H shows the control value of more than 50%)	H (H shows the control value of more than 50%)	–
COc1cc(F)c(-c2c(Br)c(=O)c(Cl)cn2C(C)c2ccccc2)c(F)c1 (centres unmarked) [Compound 82]	H (H shows the control value of more than 50%)	H (H shows the control value of more than 50%)	–
O=c1c(Br)cn(Cc2ccccc2Cl)c(-c2c(F)cc(F)cc2F)c1Cl [Compound 86]	L (L shows the control value of 50% or less)	L (L shows the control value of 50% or less)	–
COc1ccccc1-n1cc(Cl)c(=O)c(Cl)c1-c1c(F)cc(F)cc1F [Compound 75]	H (H shows the control value of more than 50%)	H (H shows the control value of more than 50%)	–
CC(c1ccccc1)n1cc(Br)c(=O)c(Br)c1-c1c(F)cc(F)cc1F (centres unmarked) [Compound 78]	L (L shows the control value of 50% or less)	H (H shows the control value of more than 50%)	–
COc1cc(F)c(-c2c(Cl)c(=O)c(Cl)cn2CCCC(F)(F)F)c(F)c1 [Compound 85]	L (L shows the control value of 50% or less)	L (L shows the control value of 50% or less)	–
O=c1c(Br)cn(CCCC(F)(F)F)c(-c2c(F)cc(F)cc2F)c1Br [Compound 72]	L (L shows the control value of 50% or less)	L (L shows the control value of 50% or less)	–

Structure (SMILES)	Test H control value class (cucumber anthracnose) ([1]; 250 ppm spray)	Test A control value class (rice blast) ([2]; spray treatment of rice plants)	also measured
O=c1c(Cl)cn(Cc2ccccc2Cl)c(-c2c(F)cc(F)cc2F)c1Br [Compound 80]	L (L shows the control value of 50% or less)	H (H shows the control value of more than 50%)	–
COc1cc(F)c(-c2c(Br)c(=O)c(Cl)cn2CCCC(F)(F)F)c(F)c1 [Compound 84]	L (L shows the control value of 50% or less)	L (L shows the control value of 50% or less)	–
O=c1c(Cl)cn(Cc2ccccc2Cl)c(-c2c(F)cc(F)cc2F)c1Cl [Compound 79]	L (L shows the control value of 50% or less)	H (H shows the control value of more than 50%)	–
CC(c1ccccc1)n1cc(Cl)c(=O)c(Cl)c1-c1c(F)cc(F)cc1F (centres unmarked) [Compound 74]	L (L shows the control value of 50% or less)	H (H shows the control value of more than 50%)	–
O=c1c(Cl)cn(CCCC(F)(F)F)c(-c2c(F)cc(F)cc2F)c1Br [Compound 70]	L (L shows the control value of 50% or less)	L (L shows the control value of 50% or less)	–
COc1cc(F)c(-c2c(Br)c(=O)c(Cl)cn2-c2ccccc2C)c(F)c1 [Compound 65]	H (H shows the control value of more than 50%)	H (H shows the control value of more than 50%)	–
COc1ccccc1-n1cc(Br)c(=O)c(Cl)c1-c1c(F)cc(F)cc1F [Compound 81]	H (H shows the control value of more than 50%)	H (H shows the control value of more than 50%)	–
CC(c1ccccc1)n1cc(Cl)c(=O)c(Br)c1-c1c(F)cc(F)cc1F (centres unmarked) [Compound 73]	L (L shows the control value of 50% or less)	H (H shows the control value of more than 50%)	–
Cc1ccccc1-n1cc(Cl)c(=O)c(Br)c1-c1c(F)cc(F)cc1F [Compound 62]	H (H shows the control value of more than 50%)	H (H shows the control value of more than 50%)	–
CC(c1ccccc1)n1cc(Br)c(=O)c(Cl)c1-c1c(F)cc(F)cc1F (centres unmarked) [Compound 77]	L (L shows the control value of 50% or less)	H (H shows the control value of more than 50%)	–
O=c1c(Cl)cn(CCCC(F)(F)F)c(-c2c(F)cc(F)cc2F)c1Cl [Compound 69]	L (L shows the control value of 50% or less)	L (L shows the control value of 50% or less)	–
Cc1c(-c2c(F)cc(F)cc2F)n(C(C)C(C)C)cc(C(F)(F)F)c1=O (centres unmarked) [Compound 157]	L (L shows the control value of 50% or less)	H (H shows the control value of more than 50%)	–
O=c1c(Br)cn(CCCC(F)(F)F)c(-c2c(F)cc(F)cc2F)c1Cl [Compound 71]	H (H shows the control value of more than 50%)	L (L shows the control value of 50% or less)	–
O=c1c(Cl)cn(-c2ccccc2Cl)c(-c2c(F)cccc2F)c1Cl [Compound 61]	H (H shows the control value of more than 50%)	H (H shows the control value of more than 50%)	–
O=c1c(Br)cn(Cc2ccccc2Cl)c(-c2c(F)cc(F)cc2F)c1Br [Compound 87]	H (H shows the control value of more than 50%)	H (H shows the control value of more than 50%)	–
Cc1ccccc1-n1cc(Cl)c(=O)c(Cl)c1-c1c(F)cc(F)cc1F [Compound 63]	H (H shows the control value of more than 50%)	H (H shows the control value of more than 50%)	–
CC(c1ccccc1)n1cc(Cl)c(=O)c(I)c1-c1c(F)cc(F)cc1F (centres unmarked) [Compound 76]	L (L shows the control value of 50% or less)	H (H shows the control value of more than 50%)	–
COc1cc(F)c(-c2c(Br)c(=O)c(Br)cn2-c2ccccc2C)c(F)c1 [Compound 68]	H (H shows the control value of more than 50%)	H (H shows the control value of more than 50%)	–
O=c1c(Cl)cn(-c2ccccc2Cl)c(-c2c(F)cccc2F)c1Br [Compound 60]	H (H shows the control value of more than 50%)	H (H shows the control value of more than 50%)	–

Reference: patent US11000038B2, “Pyridone compounds and agricultural and horticultural fungicides containing the same as active ingredients” (priority 2017, dated 2021)
